Measurements reported in a compilation of properties of binary mixtures (doi:10.1021/acs.jced.1c00387).
Some of these densities may be calculated back from excess volumes.

Experiment: xn = mol fraction of the nth substance listed
Conditions: 81.5 kPa

SMILES: CC(C)(N)CO + CC(=O)[O-].CC[n+]1ccn(C)c1
- mass density (293.15 K, x1 = 0.2): 1080.9 kg/m3
- mass density (293.15 K, x1 = 0.4): 1051.9 kg/m3
- mass density (293.15 K, x1 = 0.6): 1017.4 kg/m3
- mass density (293.15 K, x1 = 1): 934.3 kg/m3
- mass density (303.15 K, x1 = 0.2): 1074.6 kg/m3
- mass density (303.15 K, x1 = 0.4): 1045.4 kg/m3
- mass density (303.15 K, x1 = 1): 925.9 kg/m3
- mass density (313.15 K, x1 = 0.2): 1068.3 kg/m3
- mass density (313.15 K, x1 = 0.4): 1038.9 kg/m3
- mass density (313.15 K, x1 = 0.6): 1003.7 kg/m3
- mass density (313.15 K, x1 = 0.8): 963.8 kg/m3
- mass density (313.15 K, x1 = 1): 917.5 kg/m3
- mass density (323.15 K, x1 = 0.2): 1062 kg/m3
- mass density (323.15 K, x1 = 0.4): 1032.5 kg/m3
- mass density (323.15 K, x1 = 0.8): 956.4 kg/m3
- mass density (323.15 K, x1 = 1): 909.1 kg/m3
- mass density (333.15 K, x1 = 0.2): 1055.8 kg/m3
- mass density (333.15 K, x1 = 0.4): 1026.1 kg/m3
- mass density (333.15 K, x1 = 0.6): 990.2 kg/m3
- mass density (333.15 K, x1 = 1): 900.5 kg/m3
- mass density (343.15 K, x1 = 0.2): 1049.5 kg/m3
- mass density (343.15 K, x1 = 1): 891.8 kg/m3
- mass density (353.15 K, x1 = 0.2): 1043.4 kg/m3
- mass density (353.15 K, x1 = 0.4): 1013.4 kg/m3
- mass density (353.15 K, x1 = 0.6): 976.9 kg/m3
- mass density (353.15 K, x1 = 0.8): 934.3 kg/m3
- mass density (353.15 K, x1 = 1): 883 kg/m3

SMILES: OCCNCCO + CC(=O)[O-].CC[n+]1ccn(C)c1
- mass density (293.15 K, x1 = 0.2): 1100.4 kg/m3
- mass density (293.15 K, x1 = 0.4): 1097.2 kg/m3
- mass density (293.15 K, x1 = 0.6): 1094.6 kg/m3
- mass density (293.15 K, x1 = 1): 1096.4 kg/m3
- mass density (303.15 K, x1 = 0.4): 1091.1 kg/m3
- mass density (303.15 K, x1 = 0.8): 1088.4 kg/m3
- mass density (313.15 K, x1 = 0.4): 1085 kg/m3
- mass density (313.15 K, x1 = 0.6): 1082.5 kg/m3
- mass density (313.15 K, x1 = 0.8): 1082.2 kg/m3
- mass density (313.15 K, x1 = 1): 1083.5 kg/m3
- mass density (323.15 K, x1 = 0.2): 1081.9 kg/m3
- mass density (323.15 K, x1 = 0.4): 1079 kg/m3
- mass density (323.15 K, x1 = 0.6): 1076.5 kg/m3
- mass density (323.15 K, x1 = 0.8): 1076 kg/m3
- mass density (323.15 K, x1 = 1): 1076.9 kg/m3
- mass density (333.15 K, x1 = 0.2): 1075.9 kg/m3
- mass density (333.15 K, x1 = 0.6): 1070.5 kg/m3
- mass density (333.15 K, x1 = 0.8): 1069.9 kg/m3
- mass density (333.15 K, x1 = 1): 1070.3 kg/m3
- mass density (343.15 K, x1 = 0.2): 1070 kg/m3
- mass density (343.15 K, x1 = 0.4): 1067.1 kg/m3
- mass density (343.15 K, x1 = 0.6): 1064.5 kg/m3
- mass density (343.15 K, x1 = 0.8): 1063.6 kg/m3
- mass density (343.15 K, x1 = 1): 1063.5 kg/m3
- mass density (353.15 K, x1 = 0.2): 1064.1 kg/m3
- mass density (353.15 K, x1 = 0.4): 1061.2 kg/m3
- mass density (353.15 K, x1 = 1): 1056.6 kg/m3

SMILES: CC(=O)[O-].CC[n+]1ccn(C)c1 + OCCNCCO
- mass density (323.15 K, x2 = 0): 1084.4 kg/m3
- mass density (343.15 K, x2 = 0): 1072.4 kg/m3
- mass density (353.15 K, x2 = 0): 1066.5 kg/m3
